PubChem BioAssay AID445 (National Center for Advancing Translational Sciences (NCATS), 2006)
Where “and” joins values, the source holds several entries; their conditions need not be identical. Equal values may be shown once. Among all 110,000 compounds or so, about 40 (0.04%) were called active. The inconclusive results got no clear call from the source; some entries with a clear call stand among them for comparison. The call rests on the fitted dose curve; in most records, active means well fitted curve in the direction sought with a large enough effect in the signal ratio (not every such curve was filed as active); inconclusive means small, poorly fitted or top-dose-only effect, or a change in a side signal; inactive means flat fitted curve, though single readings scatter; the % refers to the signal ratio. A potency beside an inconclusive call is a rough fit, not a confirmed value.

Assay: IkB Signaling;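 on IkBa stabilization activation: 0% = basal untreated cells and 100% = reference inhibitor full response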
Conditions: ABC-DLBCL IkBa-CBG/CBR dual luciferase ratio (green luciferase fused to IkBa over red control in OCI-Ly3 lymphoma cells), 4 h; IkBa stabilization activation: at 57.1 µM (top of the series), scaled: untreated 0%, proteasome inhibitor 100% unless noted
Procedure, shortened: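 Luminescence ratio of IκBα-fused green versus native red beetle luciferase in OCI-Ly3 cells, 4 h post-doxycycline with compound; red signal alone, scaled from basal (0%) to zero light (-100%), flagged nonspecific or cytotoxic effects.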
Potency means the concentration at half of the fitted maximal effect.

Compound | IkBa stabilization activation | Potency
CC1(C)CC(=O)C2=C(C1)Oc1ncn(Cc3ccco3)c(=N)c1C2c1ccccc1 (stereo not drawn) | inconclusive: 1.48% [signal inhibitor] | –
Cc1ccc(OCC(O)Cn2c(=N)n(CCN3CCCCC3)c3ccccc32)cc1 (stereo not drawn) | inconclusive: 2.25% [signal inhibitor] and inconclusive: -4.33% [signal inhibitor] | –
COc1cccc(OC)c1C(=O)Nc1ccc(S(=O)(=O)Nc2nccc(C)n2)cc1 | inactive: 0.287% | –
Cc1ccc(NC(=O)c2c(C)nc3sc(C(=O)Nc4ccc(F)cc4)c(N)c3c2-c2ccccc2Cl)c(C)c1 | – | inconclusive: 15.8 µM [signal inhibitor]
CCOC(=O)Cn1nnnc1CN(Cc1ccc(OC)cc1)Cc1cc2cc(CC)ccc2[nH]c1=O | inconclusive: 3.09% [signal inhibitor] | –
Cc1ncoc1C(=O)Nc1ccc2c(c1)OCCO2 | inactive: -1.88% | –
COc1ccccc1NS(=O)(=O)c1cc2c(cc1Cl)NC(=O)CO2 | inconclusive: 1.19% [signal inhibitor] | –
COc1cccc(-c2cc(=O)c3cc(O)ccc3o2)c1 | inactive: -1.7% [at 11.4 µM, scaled: untreated 0%, proteasome inhibitor 100%] | –
CCOc1ccc(CCNC(=O)CSc2cc(=O)n(C)c3ccc(Cl)cc23)cc1OCC | inconclusive: -2.56% [signal inhibitor] | –
CCCN1Cc2cccc(C(=O)Nc3cc(OC)cc(OC)c3)c2C1=O | inactive: -0.966% | –
CCCc1cnc2c(c1SCc1ccc(C(F)(F)F)cc1)c(=O)n(C)c(=O)n2C | inconclusive: 2.71% [signal inhibitor] | –
CN(C)S(=O)(=O)c1cccc(C(=O)Nc2cc(Cl)ccc2O)c1 | inconclusive: 16.2% [signal inhibitor] | –
Cc1ccc(NC(=O)CSc2ccc(-c3sc(-c4ccccc4)nc3C)nn2)cc1F | inconclusive: 2.6% [signal inhibitor] | –
CC(C)Oc1ccc(CNC(=O)c2ccc(Cn3c(=O)c4cccn4c4cccnc43)cc2)cc1 | inactive: -0.95% | –
COc1ccc(-c2nnn(Cc3nc(N)nc(N4CCCCC4)n3)n2)cc1 | inconclusive: 8.78% [signal inhibitor] | –
Cc1cccc(N2CCN(C(=O)CCSCc3ccccc3F)CC2)c1C | inconclusive: -1.49% [signal inhibitor] | –
COc1ccccc1N1CCN(C(=O)Cn2ncc3c(=O)oc4ccc(C)cc4c32)CC1 | inconclusive: 2.7% [signal inhibitor] | –
CN(C)S(=O)(=O)c1ccc(C(=O)Nc2ccc(-n3nncc3-c3ccccc3)cc2)cc1 | inconclusive: 2.83% [signal inhibitor] | –
O=C(COC(=O)c1c2c(nc3ccccc13)CCCC2)Nc1ccc2c(c1)OCO2 | inconclusive: 3.4% [signal inhibitor] | –
CCCc1[nH][nH]c(=O)c1C(c1ccccc1)C(C#N)C#N (stereo not drawn) | – | inconclusive: 31.6 µM [rising, single point]
CCCCNC(=O)c1cnn2c(C)c(Cc3c(F)cccc3Cl)c(C)nc12 | inconclusive: -0.438% [signal inhibitor] | –
COc1ccc(-c2cc(C(=O)N3CCN(c4ccccn4)CC3)c3ccccc3n2)cc1 | inconclusive: 4.26% [signal inhibitor] | –
COc1cccc(NC(=O)c2cc3c(=O)n(C)c4ccccc4c3n2C)c1 | inactive: -1.59% | –

Compound | IkBa stabilization activation | Potency
COc1cccc(C(=O)COC(=O)C(C)N2C(=O)c3ccccc3C2=O)c1 (stereo not drawn) | inactive: -0.332% | –
Cc1nc2cc(NC(=O)N(C)c3ccc4ccccc4c3)ccc2o1 | inconclusive: 1.62% [signal inhibitor] | –
O=C1NCCCc2c1oc1cc(Br)c(O)c(Br)c21 | inconclusive: -1.49% [signal inhibitor] | –
CCOC(=O)c1ccccc1NC(=O)CSc1nnc(COc2ccccc2)n1CC | inconclusive: 4.12% [signal inhibitor] | –
CN1CCN(c2cc3c(c4c2[nH]c2ccccc24)C(=O)CC(C)(C)C3)CC1 | inconclusive: -1.58% [signal inhibitor] | –
COc1ccc(OC)c(CCNC(=O)c2c(C)oc3ncn(C)c(=O)c23)c1 | inconclusive: -1.64% [signal inhibitor] | –
CCc1cccc(NC(=O)CCc2nc(-c3cccs3)no2)c1 | inconclusive: 0.33% [signal inhibitor] | –
CCOCC(=O)Nc1c(C(=O)Nc2ccccc2OC)oc2ccccc12 | inactive: 2.54% | –
CC1CCc2c(C(=O)Oc3cccc(-n4cnnn4)c3)csc2C1 (stereo not drawn) | inconclusive: -0.156% [signal inhibitor] | –
O=C(O)c1cc(-c2ccc(C(F)(F)F)cc2)nc2n[nH]c(-c3ccccc3)c12 | inactive: -0.024% | –
CCOc1ccc(CN2CCN(c3ncnc4sc5c(c34)CC(C)CC5)CC2)cc1 (stereo not drawn) | inconclusive: 9.74% [signal inhibitor] | –
COc1ccccc1C(=O)Nc1nnc(S(=O)(=O)N(C)c2ccc(Cl)cc2)s1 | inconclusive: 1.32% [signal inhibitor] | –
Cc1nc2sc(C(c3cccs3)N3CCOCC3)c(O)n2n1 (stereo not drawn) | – | inconclusive: 10 µM [rising, partial curve]
COc1ccc(Cl)cc1NC(=O)c1ccc2c(c1)CCCN2S(C)(=O)=O | inconclusive: -2.1% [signal inhibitor] | –
CCOc1ccc2c(c1)c(=O)c(S(=O)(=O)c1ccccc1)cn2CC(=O)Nc1ccccc1OC | inactive: 1.27% | –
O=c1cnc2cncnc2n1Cc1ccccc1Cl | inconclusive: 10.2% [signal activator] [at 11.4 µM, scaled: untreated 0%, proteasome inhibitor 100%] | –
O=C(NCCSc1c(-c2ccccc2)[nH]c2ccccc12)c1ccc(S(=O)(=O)N2CCOCC2)cc1 | inconclusive: 9.97% [signal inhibitor] | –
CC(=O)Nc1ccc(S(=O)(=O)NCCS(=O)(=O)N2CCN(c3ccccc3F)CC2)cc1 | inconclusive: 6.14% [signal inhibitor] | –
CCOc1ccc2c(c1)c(=O)c(S(=O)(=O)c1ccc(Cl)cc1)cn2Cc1ccccc1C | inconclusive: 4.12% [signal inhibitor] | –
COc1ccc(CCNc2oc(COc3ccccc3F)nc2C#N)cc1OC | inconclusive: 7.63% [signal inhibitor] | –
N#Cc1nc(COc2cccc(Cl)c2)oc1NCc1ccncc1 | inconclusive: 6.37% [signal inhibitor] | –
COc1cc(C(=O)Nc2c(-c3ccccn3)c(=O)c3ccccc3n2C)cc(OC)c1OC | inactive: -0.172% | –
Cc1ccccc1-c1nc(SCC(=O)N(C)c2ccccc2)c2c(=O)n(C)c(=O)n(C)c2n1 | inconclusive: 0.927% [signal inhibitor] | –

Compound | IkBa stabilization activation | Potency
Cc1ccc(C)c(CN2C(=O)c3ccccc3S(=O)c3ccc(C(=O)NCCC4=CCCCC4)cc32)c1 (stereo not drawn) | inactive: 1.71% | –
COc1cccc(C(=O)Nc2ccc(C(=O)O)cc2)c1 | inactive: 10.7% | –
O=C(CSc1nnc(-c2ccccc2)o1)N1CCc2ccccc2C1 | inactive: 2.03% | –
COc1cc(NC(=O)CC2C(=O)N(c3cccc(C)c3)C(=O)N2Cc2cccs2)cc(OC)c1 (stereo not drawn) | inconclusive: 1.17% [signal inhibitor] | –
Cc1cc(C)c(S(=O)(=O)NCCc2csc3nc(-c4ccc(Cl)cc4)nn23)c(C)c1 | inconclusive: 2.73% [signal inhibitor] | –
CC(=O)c1ccc(NC(=O)Cn2nc(C(F)(F)F)c3c2CCCC3)cc1 | inconclusive: 5.51% [signal inhibitor] | –
CCSc1nn(CC(=O)Nc2cccc(Cl)c2)c(N)c1S(=O)(=O)c1ccc(OC)cc1 | inconclusive: 11.5% [signal inhibitor] | –
COc1ccc(C)cc1-n1nnnc1SCC(=O)N1CCC(C(=O)Nc2nccs2)CC1 | inconclusive: 0.423% [signal inhibitor] | –
Cc1cc2c(c(N)n1)c(=O)oc1ccccc12 | inactive: -1.58% | –
COc1ccc(-c2nc(SCC(=O)Nc3ccc4c(c3)OCCO4)c(-c3ccccc3)[nH]2)cc1 | inconclusive: 10.5% [signal inhibitor] | –
CCc1ccc(NC(=O)Cn2c(=O)n(-c3cc(C)cc(C)c3)c(=O)c3oc4ccccc4c32)cc1 | inconclusive: 0.387% [signal inhibitor] | –
Cc1ccc(-n2nc3c(=O)n(CCCC(=O)NC(C)c4ccccc4)nc(C)c3c2C)cc1 (stereo not drawn) | inconclusive: 2.27% [signal inhibitor] | –
Cc1ccc2oc(C(=O)Nc3sc4c(c3C(=O)NCc3cccnc3)CCCC4)cc(=O)c2c1 | inactive: 1.55% | –
CCCNC(=O)c1cnc2c(-c3ccc(OCC)c(OCC)c3)c(C)nn2c1-c1ccccc1 | inconclusive: -1.46% [signal inhibitor] | –
CCOC(=O)c1cc(C)n(CC2CCC(C(=O)Nc3cc(OC)cc(OC)c3)CC2)c1C (stereo not drawn) | inconclusive: -1.42% [signal inhibitor] | –
COc1cc(NC(=O)CC(c2cccs2)N2Cc3ccccc3C2=O)cc(OC)c1OC (stereo not drawn) | inconclusive: 3.91% [signal inhibitor] | –
O=C1[C@H]2[C@@H](C(=O)N1c1cc(Cl)cc(Cl)c1)[C@]1(C(=O)Nc3ccccc31)N1CCC[C@@H]21 | inconclusive: 4.78% [signal inhibitor] | –
CC(C)n1c(=N)c(C(=O)NC2CCCCC2)cc2c(=O)n3ccccc3nc21 | inactive: 1.05% | –
COc1ccc(C(=O)N2CCSC2=S)cc1OC | inconclusive: 17.1% [signal inhibitor] | –
CC(CC(=O)Nc1ccc(F)cc1)S(=O)(=O)c1cc2c3c(c1)CCN3C(=O)CC2 (stereo not drawn) | inconclusive: 1.08% [signal inhibitor] | –
CNC(=O)c1cc2c(cn1)[nH]c1ccccc12 | inactive | –
Cc1cc(=O)oc2cc(O)ccc12 | inactive: 0.636% [at 25.6 µM, scaled: untreated 0%, proteasome inhibitor 100%] | –
